{"source": "PubChem BioAssay AID1460", "about": "(National Center for Advancing Translational Sciences (NCATS), 2008)", "note": "Where “and” joins values, the source holds several entries; their conditions need not be identical. Equal values may be shown once. Among all 270,000 compounds or so, about 5,800 (2.1%) were called active. Inconclusive means that the source gave no clear call. Such entries were picked first, then a sample of the others. Calls come from the whole dose curve; as a rule, active = well fitted inhibition curve with a large enough effect; inconclusive = small, poorly fitted or top-dose-only effect; inactive = flat fitted curve, though single readings scatter. Where the call is inconclusive, the potency comes from a doubtful curve fit. % is set by controls: 0 for no effect and ±100 for the full control effect; potency is the fitted concentration of half-maximal effect; tags give direction and shape of the fitted curve."}
{"target": "Microtubule-associated protein tau (Homo sapiens) (UniProt P10636)", "sequence (P10636 whole entry, looked up, the tested form may be a part)": "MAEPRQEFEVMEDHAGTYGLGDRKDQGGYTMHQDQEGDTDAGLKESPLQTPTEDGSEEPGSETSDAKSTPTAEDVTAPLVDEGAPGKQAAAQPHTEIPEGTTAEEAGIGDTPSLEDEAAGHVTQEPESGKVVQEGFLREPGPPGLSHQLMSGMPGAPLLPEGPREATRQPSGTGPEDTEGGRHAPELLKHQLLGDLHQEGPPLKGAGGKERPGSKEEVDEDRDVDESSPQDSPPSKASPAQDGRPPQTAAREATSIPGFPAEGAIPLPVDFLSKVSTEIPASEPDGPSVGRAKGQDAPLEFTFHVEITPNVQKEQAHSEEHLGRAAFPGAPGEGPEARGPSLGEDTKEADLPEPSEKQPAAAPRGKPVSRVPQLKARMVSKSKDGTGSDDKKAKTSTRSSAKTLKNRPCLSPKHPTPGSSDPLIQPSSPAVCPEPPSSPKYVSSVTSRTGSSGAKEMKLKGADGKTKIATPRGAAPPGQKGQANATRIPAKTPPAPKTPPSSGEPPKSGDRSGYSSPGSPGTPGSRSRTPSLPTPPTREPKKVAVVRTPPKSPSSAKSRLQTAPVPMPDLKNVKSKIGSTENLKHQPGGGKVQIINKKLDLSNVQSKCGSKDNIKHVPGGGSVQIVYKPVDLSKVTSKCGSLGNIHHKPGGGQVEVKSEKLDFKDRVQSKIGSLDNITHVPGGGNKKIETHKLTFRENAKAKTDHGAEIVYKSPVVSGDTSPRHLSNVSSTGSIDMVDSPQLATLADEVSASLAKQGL", "assay": "qHTS for Inhibitors of Tau Fibril Formation, Thioflavin T Binding; note: nearly all actives have a fitted effect of over 55% in size", "settings": "recombinant tau K18 P301L (four-repeat tau fragment), heparin-induced fibrillization, ThT fluorescence; series mostly up to 57.4 µM; activity, negative = inhibition: at the top concentration", "method_in_brief": "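Heparin-induced fibrillization of the P301L-mutant K18 repeat-domain fragment of human tau was followed by ThT binding in quantitative high-throughput format.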"}
{"smiles": "O=C(CSc1n[nH]c(-c2ccco2)n1)Nc1sc2c(c1C(=O)Nc1ccccc1)CCCC2", "activity, negative = inhibition": "inactive: -0.705%"}
{"smiles": "Nc1ccccc1C(=O)CC(N)C(=O)O", "note": "(stereo not drawn)", "Potency": "inactive and inconclusive: 10 µM [inhibitor, partial curve]"}
{"smiles": "COc1ccccc1Oc1ccc(-c2cnc3ccccc3n2)cc1[N+](=O)[O-]", "Potency": "inconclusive: 20 µM [inhibitor, single point]"}
{"smiles": "CCCC(C(=O)Nc1nccs1)c1ccccc1", "note": "(stereo not drawn)", "activity, negative = inhibition": "inactive: 0.183%"}
{"smiles": "Nc1ccc(OCc2ccccc2)cc1", "Potency": "inconclusive: 14.1 µM [inhibitor, partial curve]"}
{"smiles": "COc1ccccc1N1CCN(C(=O)C2CCN(S(=O)(=O)Cc3ccccc3)CC2)CC1", "activity, negative = inhibition": "inactive: -15.5%"}
{"smiles": "C=CCN(CC=C)C(=O)COC(=O)c1ccc(Sc2ncn[nH]2)c([N+](=O)[O-])c1", "activity, negative = inhibition": "inactive: -8.37%"}
{"smiles": "Cc1ccccc1N(CC(=O)N/N=C/c1ccc(N(C)C)cc1)C(=O)c1ccccc1", "Potency": "inconclusive: 7.94 µM [inhibitor, partial curve]"}
{"smiles": "CC(=O)Nc1ccc(NC(=O)Cc2ccc(S(=O)(=O)N3CCCCC3)s2)cc1", "Potency": "inconclusive: 39.8 µM [inhibitor, single point]"}
{"smiles": "COC1(OC)N=C(N)C2(C#N)C(c3cccc(Oc4ccccc4)c3)C12C#N", "note": "(stereo not drawn)", "Potency": "inconclusive: 22.4 µM [inhibitor, partial curve]"}
{"smiles": "Cc1ccc(/C=N/NC(=O)c2c[nH]c3ccccc23)o1", "Potency": "inconclusive: 35.5 µM [inhibitor, partial curve]"}
{"smiles": "COc1ccc(NC(=O)Nc2cccc(NC(C)=O)c2)c(OC)c1", "Potency": "inconclusive: 3.55 µM [inhibitor, partial curve]"}
{"smiles": "CC(=O)n1cc([C@@H]2C=C(C(=O)Nc3ccccc3)O[C@H](OCCCCO)C2)c2ccccc21", "Potency": "inconclusive: 6.31 µM [inhibitor, single point]"}
{"smiles": "S=C(Nc1ccc(Cl)cc1Cl)Nc1ccccc1Oc1ccccc1", "activity, negative = inhibition": "inactive: -11.1%"}
{"smiles": "Cc1cc(C(=O)O)ccc1-n1c(C)cc(C=C2C(=O)c3ccccc3C2=O)c1C", "Potency": "active: 14.1 µM"}
{"smiles": "COc1ccc(OCC(=O)NC(=S)Nc2ccc(N3CCOCC3)c(Cl)c2)cc1", "Potency": "inconclusive: 7.94 µM [inhibitor, partial curve]"}
{"smiles": "COC(=O)c1cc(NS(=O)(=O)c2ccc(N3CCCCCC3)c([N+](=O)[O-])c2)cc(C(=O)OC)c1", "Potency": "inconclusive: 15.8 µM [inhibitor, partial curve]"}
{"smiles": "COc1ccc(-c2nc(C#N)c(N3CCc4ccccc4C3)o2)cc1OC", "Potency": "inconclusive: 15.8 µM [inhibitor, partial curve]"}
{"smiles": "COCc1nn2cc(-c3ccc(C)cc3)nc2s1", "Potency": "inconclusive: 22.4 µM [inhibitor, partial curve, poor fit]"}
{"smiles": "Cc1ccc(C(=O)Nc2cc(-c3nc4ncccc4o3)ccc2C)c(C)c1", "Potency": "inconclusive: 39.8 µM [inhibitor, single point]"}
{"smiles": "O=C1c2ccsc2SCCN1Cc1c(Cl)cccc1Cl", "activity, negative = inhibition": "inactive: -2.48%"}
{"smiles": "COc1cc(O)c(C(C)=O)c(CC(=O)O)c1", "Potency": "inconclusive: 28.2 µM [inhibitor, single point]"}
{"smiles": "Cc1nc2c(C(=O)N3CCN(c4ccccn4)CC3)cnn2c(C)c1Cc1cccc(Cl)c1", "Potency": "inconclusive: 25.1 µM [inhibitor, partial curve]"}
{"smiles": "CCN(CC)C(=O)Cn1ccc(NC(C)=O)nc1=O", "Potency": "inconclusive: 2.51 µM [activator, single point]"}
{"smiles": "CCOc1ccc(OCC)c(NC(=O)CN2CCN(c3cccc(C)c3)CC2)c1", "Potency": "inconclusive: 35.5 µM [inhibitor, partial curve]"}
{"smiles": "Clc1ccc(CNc2ccc(CNc3ncn[nH]3)cc2)c(Cl)c1", "Potency": "inconclusive: 35.5 µM [inhibitor, single point]"}
{"smiles": "Cc1ccc(C(=O)c2c(N)c(-c3nc(-c4ccc5c(c4)OCO5)cs3)c3ccccn23)cc1C", "Potency": "inconclusive: 0.891 µM [inhibitor, full curve, poor fit]"}
{"smiles": "COc1ccc(C2CC(C)(c3ccc(OC)cc3OC)Nc3ccccc3N2)c(OC)c1", "note": "(stereo not drawn)", "Potency": "inconclusive: 39.8 µM [inhibitor, single point]"}
{"smiles": "COc1ccc2ccccc2c1/C=N/NC(=O)c1sc(N)c(C#N)c1C", "Potency": "inconclusive: 4.47 µM [inhibitor, partial curve]"}
{"smiles": "O=C1NC(=O)[C@@H]2C3c4ccccc4C=CN3[C@H](C(=O)c3cccs3)[C@H]12", "note": "(stereo partly drawn)", "Potency": "active: 28.2 µM"}
{"smiles": "COC(=O)/C=C/c1sc2nc(C)cc(C)c2c1N=CN(C)C", "Potency": "inconclusive: 15.8 µM [inhibitor, partial curve]"}
{"smiles": "CCC(=O)Nc1ccc(C(=O)Nc2ccc(OC)cc2[N+](=O)[O-])cc1", "Potency": "inconclusive: 1.58 µM [inhibitor, full curve, poor fit]"}
{"smiles": "CCc1ccc(NC(=O)C(C)OC(=O)c2cccc(S(=O)(=O)N3CCc4ccccc4C3)c2)cc1", "note": "(stereo not drawn)", "activity, negative = inhibition": "inactive: 8.85%"}
{"smiles": "CCN1C(=O)/C(=C2/C=Cc3ccccc3N2CC)SC1=S", "Potency": "active: 12.6 µM"}
{"smiles": "COc1ccc(N2CCN(C(c3ccccc3)c3sc4nc(-c5ccco5)nn4c3O)CC2)cc1", "note": "(stereo not drawn)", "Potency": "inconclusive: 14.1 µM [inhibitor, partial curve]"}
{"smiles": "O=C(Nc1nc2c(s1)CCCCCC2)Nc1ccc(F)cc1F", "activity, negative = inhibition": "inactive: 7.1%"}
{"smiles": "Cc1ccc2oc(=O)c3cc(C(=O)NCCCN4CCc5ccccc5C4)sc3c2c1", "Potency": "inconclusive: 14.1 µM [inhibitor, partial curve, poor fit]"}
{"smiles": "CCOC(=O)c1c(C)oc2ncnc(Nc3ccc(OC)cc3OC)c12", "activity, negative = inhibition": "inactive: 0.936%"}
{"smiles": "CSC1=N/C(=C\\c2ccc(C)o2)C(=O)S1", "Potency": "inconclusive: 15.8 µM [inhibitor, partial curve]"}
{"smiles": "CC(C)c1ccc(OCC(O)CN2CCN(c3ccccc3)CC2)cc1", "note": "(stereo not drawn)", "Potency": "inconclusive: 11.2 µM [inhibitor, partial curve]"}
{"smiles": "Clc1ccc(OCc2nn3c(C4CCCCC4)nnc3s2)cc1", "activity, negative = inhibition": "inactive: -2.31%"}
{"smiles": "COc1ccc(C2C(C#N)=C(N)N3C(=C2C#N)Sc2ccccc23)cc1", "note": "(stereo not drawn)", "Potency": "inconclusive: 17.8 µM [inhibitor, single point]"}
{"smiles": "O=C(Cc1cc(=O)[nH][nH]1)N/N=C/c1ccccc1[N+](=O)[O-]", "Potency": "inconclusive: 3.55 µM [inhibitor, partial curve]"}
{"smiles": "CCOC(=O)c1c(-c2ccc(C)o2)csc1NC(=O)CSc1nncs1", "Potency": "inconclusive: 35.5 µM [inhibitor, single point]"}
{"smiles": "CCN(CC(=O)Nc1c(C(=O)OC)[nH]c2ccc(C)cc12)c1ccc2c(c1)OCO2", "Potency": "inconclusive: 28.2 µM [inhibitor, single point]"}
{"smiles": "O=C(Nc1nnc(S(=O)(=O)N2CCCc3ccccc32)s1)c1ccccc1Cl", "Potency": "inconclusive: 0.708 µM [inhibitor, full curve]"}
{"smiles": "O=C(Nc1cccnc1)c1ccc2nc(-c3ccccc3)c(-c3ccccc3)nc2c1", "activity, negative = inhibition": "inactive: -17.7%"}
{"smiles": "O=C(/C=C/c1cccc(C(F)(F)F)c1)Nc1cccc(C(F)(F)F)c1", "Potency": "inconclusive: 17.8 µM [inhibitor, partial curve]"}
{"smiles": "CCOC(=O)c1c(NC(=O)c2ccoc2C)sc2c1CCC2", "activity, negative = inhibition": "inactive: -4.75%"}
{"smiles": "CCOC(=O)N1CCN(c2ccc([N+](=O)[O-])cc2F)CC1C", "note": "(stereo not drawn)", "Potency": "inconclusive: 14.1 µM [inhibitor, partial curve]"}
{"smiles": "CC(C)C[C@@H]1NC(=O)[C@H](C(C)C)NC(=O)c2cc([N+](=O)[O-])cc(I)c2OCC[C@@H](C(N)=O)NC1=O", "activity, negative = inhibition": "inactive: -8.77%"}
{"smiles": "O=C1CS/C(=N\\C(=O)N2c3ccccc3Sc3ccccc32)N1", "Potency": "inconclusive: 22.4 µM [inhibitor, partial curve]"}
{"smiles": "CCOC(=O)CC(=O)CSc1nc2sc(C)cc2c(=O)n1Cc1ccco1", "activity, negative = inhibition": "inactive: -13.7%"}
{"smiles": "COc1cc(OC)cc(-c2cc3nc(C)c(CCC(=O)NCc4ccccc4)c(C)n3n2)c1", "Potency": "inconclusive: 39.8 µM [inhibitor, single point]"}
{"smiles": "Cc1cc(C=O)c(C)n1-c1ccc(N2CCOCC2)c([N+](=O)[O-])c1", "activity, negative = inhibition": "inactive: -16.4%"}
{"smiles": "Cc1cccc(C(=O)O/N=C/c2ccc(Br)cc2)c1", "Potency": "inconclusive: 15.8 µM [inhibitor, partial curve]"}
{"smiles": "Cc1cccc(C2C=C(c3ccc(C)c(C)c3)Nc3nnnn32)c1", "note": "(stereo not drawn)", "activity, negative = inhibition": "inactive: -8.47%"}
{"smiles": "S=C(NC1CC1)N1CCN(c2ccc(Cl)cc2)CC1", "Potency": "inconclusive: 7.94 µM [inhibitor, partial curve]"}
{"smiles": "O=C(CSCc1cnn(-c2ccccc2)c1-n1cccc1)NCc1ccc(Cl)cc1", "activity, negative = inhibition": "inactive: -1.21%"}
{"smiles": "NC(=O)C1(N2CCCCC2)CCN(CC(=O)Nc2ccccc2-c2ccccc2)CC1", "activity, negative = inhibition": "inactive: -3.08%"}
{"smiles": "O=C(NC1CCCCC1NC(=O)c1ccco1)c1ccco1", "note": "(stereo not drawn)", "activity, negative = inhibition": "inactive: -8.43%"}
{"smiles": "CO[C@H]1COC(=O)C/C=C\\[C@@H](C)COC(=O)[C@@H](CCSC)NC(=O)C/C=C\\[C@@H]1C", "Potency": "inconclusive: 8.91 µM [inhibitor, single point]", "activity, negative = inhibition": "inactive: -1.35% [at 11.5 µM]"}
{"smiles": "Cc1ccccc1Nc1nn2c(=O)c3ccccc3nc2s1", "Potency": "inconclusive: 0.251 µM [inhibitor, full curve]"}
{"smiles": "CCSc1nc(NCCN(C)C)c2c3c(sc2n1)COC(C)(CC)C3", "note": "(stereo not drawn)", "Potency": "inconclusive: 25.1 µM [inhibitor, single point]"}
{"smiles": "OC1(c2cccc(C(F)(F)F)c2)CCN(c2ccc(-c3ccccc3)nn2)CC1", "Potency": "inconclusive: 2.24 µM [inhibitor, full curve, poor fit]"}
{"smiles": "c1ccc(-c2ccnc3nc(N4CCN(c5ccccc5)CC4)nn23)cc1", "Potency": "inconclusive: 28.2 µM [inhibitor, single point]"}
{"smiles": "CCN1CCN(Cc2ccc(NC(=O)c3cc(NC(=O)c4cc(-c5ccc(OC)cc5)n[nH]4)cc(OC)c3)cc2C(F)(F)F)CC1", "Potency": "inconclusive: 20 µM [activator, partial curve, poor fit]"}
